The text below walks through data of ChEMBL document CHEMBL4888484, “Replenishing the malaria drug discovery pipeline: Screening and hit evaluation of the MMV Hit Generation Library 1 (HGL1) against asexual blood stage Plasmodium falciparum ,using a nano luciferase reporter read-out” (2022).

Out of some 150,000 compounds screened, about 540 (0.36%) showed an effect of 50% or more. The list shows a part of the results.

The test system of this experiment is Plasmodium falciparum. In words: Primary screen in NF54 nanoGlo assay, in single point, at 2uM, 72h; a lower Z score goes with more inhibition. The class given is functional, Erythrocyte. Conditions: timepoint 72 hour.
One may read the % Inhibition as the change of the read-out against control, counted positive when it falls. With `O=C1NC2(CCCC2)C(=O)N1CC(=O)N1c2ccccc2CCc2ccccc21`, the “% Inhibition” value was determined as 0% and the Z score was -0.03.
For `COCCC1(c2nc(-c3ccc(C(N)=O)cc3)no2)CCCC1`, the “% Inhibition” value is reported as -7% and the Z score is given as 0.8.
In the case of `CC(C)(C)OC(=O)NC(C)(C)c1noc(-c2ccc3[nH]cnc3c2)n1`, the “% Inhibition” value is -9% and the Z score came out at 1.6.
As for `CCc1cc(N(CCC#N)CCC#N)n2ncnc2n1`, the “% Inhibition” value amounted to 4% and the Z score is on record as -0.7.
Turning to `Cc1nc(CC(=O)N(C)Cc2ccc(-n3cccn3)cc2)cs1`, the “% Inhibition” value was -10% and the Z score is 1.71.
As for `CC1CCN(S(=O)(=O)c2ccc(-c3noc(/C=C/c4ccco4)n3)cc2)CC1`, the “% Inhibition” value is listed as -5% and the Z score was 0.87.
Consider `CC(C)(C)CCC(=O)NCCCc1nnn[nH]1`, for which the “% Inhibition” value was -9% and the Z score was found to be 1.19.
For `Cc1cc(S(=O)(=O)NCc2nc(C(=O)N3CCC(C)CC3)c(C)o2)ccc1Cl`, the “% Inhibition” value is listed as -7% and the Z score worked out at 0.94.
In the same order, the values of `CN(C)c1ccccc1C(=O)N1CCN(C)[C@H](c2ccccc2)C1` are -5% and 1.02.
As for `CN(CCS(=O)(=O)c1ccccc1)Cc1nncn1C`, the “% Inhibition” value is listed as -2% and the Z score is recorded as 0.44.
Turning to `COc1ccc(NC(=O)Nc2c(-c3cccc(OC)c3)n[nH]c2C)cc1`, the “% Inhibition” value is 2% and the Z score is -0.26.
For the compound `Cc1cccc(C(=O)NCCn2ccnc2)n1`, the “% Inhibition” value came to 14% and the Z score is given as -1.21.
Consider `O=C1NCCCCC1NC(=O)N1CCCC1c1ccc2c(c1)OCCO2` (stereo not drawn), for which the “% Inhibition” value is listed as -7% and the Z score is recorded as 1.17.
Consider `O=C1CCC(NC(=O)NC2CCN(c3ccccc3Cl)C2=O)C(C2CC2)N1` (stereo not drawn), for which the “% Inhibition” value is listed as -16% and the Z score stood at 2.38.
Regarding `Cc1cccc(C)c1NC(=O)Cn1cnc2c(c(C)c(C)n2-c2ccccc2)c1=O`, the “% Inhibition” value came out at 8% and the Z score is -0.81.
In the same order, the values of `Cc1cc(NC(=O)CN2CCN(c3nccc4sccc34)CC2)n(C)n1` are -14% and 1.79.
With `Cc1c(O)cccc1C(=O)N1CCN(CC2CC2)[C@@H]2CS(=O)(=O)C[C@@H]21`, the “% Inhibition” value is -8% and the Z score turned out to be 1.35.
`CC(C)(C)[C@H]1OCC[C@@H]1c1noc(-c2cccnc2)n1`: the “% Inhibition” value is -9% and the Z score was 1.26.
Take `Cc1cc(Oc2ccc(-n3ncc4ccccc43)cc2)n2ncnc2n1`: the “% Inhibition” value was -5% and the Z score was 0.62.
Consider `NS(=O)(=O)[C@H]1CCN(c2ncncc2Br)C1`, for which the “% Inhibition” value was -8% and the Z score is listed as 0.98.
In the same order, the values of `Cc1ccncc1CN(C)C(=O)[C@]1(O)CCc2cc(Br)ccc2C1` are -5% and 1.08.
In the case of `CC#CC(=O)N1C[C@H](NC(=O)OC(C)(C)C)[C@@H](c2cccc(F)c2)C1`, the “% Inhibition” value is reported as 2% and the Z score is on record as -0.26.
Regarding `CC[C@@H](C(=O)Nc1cc(F)ccc1F)n1cnc2nc(N3CCCCC3)ncc2c1=O`, the “% Inhibition” value amounted to 29% and the Z score is -3.24.
For the compound `CCOc1cccc(CNC(=O)c2ccc(-c3ccsc3)nc2)c1`, the “% Inhibition” value was -1% and the Z score is listed as 0.13.
In the case of `COc1cccc2sc(N(C)CC(=O)Nc3ccc4c(c3)OCO4)nc12`, the “% Inhibition” value is listed as -12% and the Z score amounted to 2.34.
Regarding `COc1cccc(NC(=O)N2C[C@@H]3C[C@H](NS(C)(=O)=O)[C@H]2C3)c1`, the “% Inhibition” value is recorded as 37% and the Z score is -4.19.
Taken in the same sequence, the figures for `COCCn1cc(CC(=O)N2CCOCC2)c2cccnc21` were -9% and 1.07.
With `COc1cc(NC(=O)c2sc(N(C)C)nc2C)cc(OC)c1`, the “% Inhibition” value is reported as -10% and the Z score is reported as 0.98.
For `O=C(CN1CCCC1=O)N1CCC(Cc2ccccc2)CC1`, the “% Inhibition” value is -9% and the Z score is on record as 1.1.
Taken in the same sequence, the figures for `CC1CCCC(C)N1S(=O)(=O)c1ccc(NS(=O)(=O)c2ccc3c(c2)CC(=O)N3C)cc1` (stereo not drawn) were -11% and 1.39.
For `O=C(CCC1CCN(C(=O)C2=CCCCC2)CC1)Nc1ccc2c(c1)OCCO2`, the “% Inhibition” value is reported as 1% and the Z score is given as -0.17.
`Cc1ccc(Cn2cnc3c2c(=O)n(CC2CC2)c(=O)n3-c2cccc(Cl)c2)cc1`: the “% Inhibition” value is -16% and the Z score is reported as 1.49.
In the same order, the values of `O=C(CN(C1CCN(Cc2ccccc2)CC1)S(=O)(=O)c1ccccc1)N1CCNCC1` are 5% and -0.56.
As to `CS(=O)(=O)N1CCN(C(=O)c2ccc(Oc3nccs3)cc2)CC1`, the “% Inhibition” value was -7% and the Z score is 1.17.
Consider `Cn1ccnc1CN(CCO)CC(=O)NC1CCCCCCC1`, for which the “% Inhibition” value is listed as -4% and the Z score was 0.57.
Regarding `O=C(c1cc2c(s1)CCCC2)N1CCN(c2ncccn2)CC1`, the “% Inhibition” value is listed as -7% and the Z score was determined as 0.74.
Regarding `CCc1cc(-n2ccc(C)n2)ccc1NC(C)=O`, the “% Inhibition” value is -6% and the Z score amounted to 0.96.
With `COc1cc([C@H]2CC(=O)Nc3c2c(C)nn3-c2ccc(Cl)cc2)ccc1O`, the “% Inhibition” value is -1% and the Z score was found to be 0.07.
Taken in the same sequence, the figures for `Cc1[nH]ncc1C(=O)N[C@H]1CCCC[C@@H]1F` were -5% and 1.05.
In the same order, the values of `CCOC1CC(NCC(O)c2ccco2)C12CCCC2` (stereo not drawn) are -6% and 0.87.
Take `CC(C)(C)C1OCCCC1CN=C(N)N1CCOCC1` (stereo not drawn): the “% Inhibition” value is listed as -20% and the Z score was determined as 1.79.
For the compound `COCCN1C(=O)C[C@H](C(=O)NCc2ccc(C)nc2)[C@H]1c1nccn1C`, the “% Inhibition” value was -5% and the Z score turned out to be 0.72.
Take `COc1ccc(CCNc2nc3ccccn3n2)cc1`: the “% Inhibition” value is given as -6% and the Z score amounted to 1.13.
For `O=C(NCCc1n[nH]c(Cc2cccc(Cl)c2)n1)c1ccc(Cl)cc1`, the “% Inhibition” value worked out at 2% and the Z score was -0.44.
Turning to `OC1(c2ccccc2)Cc2cccc[n+]2C1c1ccccc1` (stereo not drawn), the “% Inhibition” value is -2% and the Z score came out at 0.14.
For the compound `COc1nc(NC(=O)[C@H](C)c2c(F)cccc2F)n[nH]1`, the “% Inhibition” value was -9% and the Z score was 1.26.
Consider `CC(C)[C@H]1CCCN(c2nccnc2C#N)CC1`, for which the “% Inhibition” value is 4% and the Z score was -0.57.
As to `Cc1cc(N)n(S(=O)(=O)c2cn(C)nc2C)n1`, the “% Inhibition” value is on record as -37% and the Z score came out at 4.33.
In the same order, the values of `CCc1cc(CC)c(NC(=O)N2CCC[C@H]2c2nc(C)no2)c(CC)c1` are 7% and -0.93.
Regarding `CCn1c(CC2CCN(Cc3ccc(O)c(C(=O)O)c3)CC2)nn(C)c1=O`, the “% Inhibition” value was -6% and the Z score amounted to 1.28.
Consider `CCNC(=O)c1cccc(-n2cnc3c(C)ncnc32)c1`, for which the “% Inhibition” value came out at 9% and the Z score is on record as -1.27.
For `CO[C@@]1(c2nnc3n2CC(C)(C)CC3)CCOC1`, the “% Inhibition” value was -6% and the Z score is on record as 1.17.
Taken in the same sequence, the figures for `CN1C(=O)[C@@]2(c3ccccc31)[C@@H](C(=O)Nc1ccc(F)cc1)C[C@H]1CCCN12` were -26% and 2.48.
For `COc1ccc(-c2noc(-c3c(C)n[nH]c3C)n2)cc1`, the “% Inhibition” value stood at 4% and the Z score was -0.49.
